Reference: the supplement of paper PMC6089552
The whole screen tested about 3,200 compounds, of which about 300 (9.4%) showed activity. The list shows a part of the results, in another mix than the full data.

Test system: A673/TR/shEF
Test: cell viability (LOESS-normalised, relative to median of negative controls) (log2 ratio); higher = more viable cells (less compound effect), active = hit call of the paper (over 3 MAD below the median)
Details: treatment time: 72 h
Outline: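 A673/TR/shEF Ewing sarcoma cells (1,500 per well, 384-well plates) were grown with or without doxycycline to induce EWS-FLI1 shRNA knockdown, starting 24 h before compounds. Library compounds at two or more concentrations, with DMSO controls, were added for three days. Cell viability was read by CellTiter-Glo luminescence on an Envision reader, then LOESS-corrected per plate, divided by the median of negative controls and log2-transformed. Hits were wells at least three median absolute deviations from the median of all screened wells.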

[1] = 0.103 µM, library screen: screen3, EWS-FLI1 expression: high (no doxycycline)
[2] = 0.103 µM, library screen: screen3, EWS-FLI1 expression: low (doxycycline-induced shRNA knockdown)
[3] = 0.25 µM, library screen: screen1, EWS-FLI1 expression: high (no doxycycline)
[4] = 0.25 µM, library screen: screen1, EWS-FLI1 expression: low (doxycycline-induced shRNA knockdown)
[5] = 0.25 µM, library screen: screen2, EWS-FLI1 expression: high (no doxycycline)
[6] = 0.25 µM, library screen: screen2, EWS-FLI1 expression: low (doxycycline-induced shRNA knockdown)
[7] = 0.308 µM, library screen: screen3, EWS-FLI1 expression: high (no doxycycline)
[8] = 0.308 µM, library screen: screen3, EWS-FLI1 expression: low (doxycycline-induced shRNA knockdown)
[9] = 0.926 µM, library screen: screen3, EWS-FLI1 expression: high (no doxycycline)
[10] = 0.926 µM, library screen: screen3, EWS-FLI1 expression: low (doxycycline-induced shRNA knockdown)
[11] = 2.5 µM, library screen: screen1, EWS-FLI1 expression: high (no doxycycline)
[12] = 2.5 µM, library screen: screen1, EWS-FLI1 expression: low (doxycycline-induced shRNA knockdown)
[13] = 2.5 µM, library screen: screen2, EWS-FLI1 expression: high (no doxycycline)
[14] = 2.5 µM, library screen: screen2, EWS-FLI1 expression: low (doxycycline-induced shRNA knockdown)
[15] = 2.8 µM, library screen: screen3, EWS-FLI1 expression: high (no doxycycline)
[16] = 2.8 µM, library screen: screen3, EWS-FLI1 expression: low (doxycycline-induced shRNA knockdown)
[17] = 8.3 µM, library screen: screen3, EWS-FLI1 expression: high (no doxycycline)
[18] = 8.3 µM, library screen: screen3, EWS-FLI1 expression: low (doxycycline-induced shRNA knockdown)
[19] = 25 µM, library screen: screen3, EWS-FLI1 expression: high (no doxycycline)
[20] = 25 µM, library screen: screen3, EWS-FLI1 expression: low (doxycycline-induced shRNA knockdown)

SMILES: CC(=O)N1CCN(c2ccc(OC[C@H]3CO[C@](Cn4ccnc4)(c4ccc(Cl)cc4Cl)O3)cc2)CC1
- cell viability (log2) [1]: inactive: 0.125
- cell viability (log2) [2]: inactive: 0.0515
- cell viability (log2) [3]: inactive: 0.0526
- cell viability (log2) [4]: inactive: -0.0485
- cell viability (log2) [5]: inactive: 0.189
- cell viability (log2) [6]: inactive: 0.109
- cell viability (log2) [7]: inactive: 0.078
- cell viability (log2) [8]: inactive: 0.064
- cell viability (log2) [9]: inactive: -0.0249
- cell viability (log2) [10]: inactive: 0.0585
- cell viability (log2) [11]: inactive: 0.211
- cell viability (log2) [12]: inactive: 0.0029
- cell viability (log2) [13]: inactive: -0.00521
- cell viability (log2) [14]: inactive: 0.0303
- cell viability (log2) [15]: inactive: -0.0229
- cell viability (log2) [16]: inactive: 0.0304
- cell viability (log2) [17]: inactive: 0.0791
- cell viability (log2) [18]: inactive: 0.02
- cell viability (log2) [19]: inactive: 0.147
- cell viability (log2) [20]: inactive: -0.00206

SMILES: COc1ccc2c(c1)CCC1=CC(=O)CCC12C (stereo not given)
- cell viability (log2) [3]: inactive: 0.119
- cell viability (log2) [4]: inactive: 0.144
- cell viability (log2) [11]: inactive: 0.0987
- cell viability (log2) [12]: inactive: 0.126

SMILES: CN(C)CC/C=C1/c2ccccc2Sc2ccc(Cl)cc21
- cell viability (log2) [1]: inactive: 0.104
- cell viability (log2) [2]: inactive: 0.0714
- cell viability (log2) [3]: inactive: 0.112
- cell viability (log2) [4]: inactive: 0.137
- cell viability (log2) [5]: inactive: 0.198
- cell viability (log2) [6]: inactive: 0.0901
- cell viability (log2) [7]: inactive: 0.123
- cell viability (log2) [8]: inactive: 0.0894
- cell viability (log2) [9]: inactive: 0.124
- cell viability (log2) [10]: inactive: 0.09
- cell viability (log2) [11]: inactive: 0.0435
- cell viability (log2) [12]: inactive: 0.171
- cell viability (log2) [13]: inactive: 0.097
- cell viability (log2) [14]: inactive: 0.0847
- cell viability (log2) [15]: inactive: 0.161
- cell viability (log2) [16]: inactive: 0.0902
- cell viability (log2) [17]: inactive: 0.0997
- cell viability (log2) [18]: inactive: 0.106
- cell viability (log2) [19]: inactive: 0.0217
- cell viability (log2) [20]: inactive: 0.0665

SMILES: CN(C)CCOC(c1ccccc1)c1ccccc1
- cell viability (log2) [1]: inactive: 0.0458
- cell viability (log2) [2]: inactive: 0.0854
- cell viability (log2) [3]: inactive: 0.106
- cell viability (log2) [4]: inactive: 0.0755
- cell viability (log2) [5]: inactive: 0.0714
- cell viability (log2) [6]: inactive: -0.00862
- cell viability (log2) [7]: inactive: 0.116
- cell viability (log2) [8]: inactive: 0.0863
- cell viability (log2) [9]: inactive: 0.0978
- cell viability (log2) [10]: inactive: 0.0963
- cell viability (log2) [11]: inactive: 0.172
- cell viability (log2) [12]: inactive: 0.17
- cell viability (log2) [13]: inactive: 0.0587
- cell viability (log2) [14]: inactive: 0.000637
- cell viability (log2) [15]: inactive: 0.0751
- cell viability (log2) [16]: inactive: 0.089
- cell viability (log2) [17]: inactive: 0.105
- cell viability (log2) [18]: inactive: 0.11
- cell viability (log2) [19]: inactive: 0.199
- cell viability (log2) [20]: inactive: 0.14

SMILES: COc1cc(OC)cc(OC)c1
- cell viability (log2) [3]: inactive: 0.193
- cell viability (log2) [4]: inactive: 0.141
- cell viability (log2) [11]: inactive: 0.207
- cell viability (log2) [12]: inactive: 0.0756

SMILES: COc1ccc(C2C3=C(CC(C)(C)CC3=O)OC3=C2C(=O)CC(C)(C)C3)cc1[N+](=O)[O-]
- cell viability (log2) [3]: inactive: 0.06
- cell viability (log2) [4]: inactive: 0.0112
- cell viability (log2) [11]: inactive: 0.134
- cell viability (log2) [12]: inactive: -0.00188

SMILES: Cc1cc(=O)oc2cc(O)c(O)cc12
- cell viability (log2) [3]: inactive: -0.0238
- cell viability (log2) [4]: inactive: 0.0536
- cell viability (log2) [11]: inactive: 0.00784
- cell viability (log2) [12]: inactive: 0.0751

SMILES: N[C@@H](Cc1cc(I)c(Oc2cc(I)c(O)c(I)c2)c(I)c1)C(=O)O
- cell viability (log2) [3]: inactive: 0.115
- cell viability (log2) [4]: inactive: 0.0893
- cell viability (log2) [11]: inactive: 0.154
- cell viability (log2) [12]: inactive: 0.312

SMILES: CSc1nc(N)c2ncn(C3OC(COP(=O)(O)OP(=O)(O)O)C(O)C3O)c2n1 (stereo not given)
- cell viability (log2) [5]: inactive: 0.0889
- cell viability (log2) [6]: inactive: 0.0973
- cell viability (log2) [13]: inactive: 0.157
- cell viability (log2) [14]: inactive: 0.0918

SMILES: CN1C[C@H](O)[C@@H](O)[C@H](O)[C@H]1CO
- cell viability (log2) [5]: inactive: -0.0352
- cell viability (log2) [6]: inactive: 0.0677
- cell viability (log2) [13]: inactive: 0.0611
- cell viability (log2) [14]: inactive: 0.0287

SMILES: NC(N)=NCCSSCCN=C(N)N
- cell viability (log2) [5]: inactive: 0.208
- cell viability (log2) [6]: inactive: 0.0937
- cell viability (log2) [13]: inactive: 0.0577
- cell viability (log2) [14]: inactive: 0.063

SMILES: O=C1C[C@@H](c2ccc(O)cc2)Oc2cc(O)ccc21
- cell viability (log2) [3]: inactive: 0.0381
- cell viability (log2) [4]: inactive: 0.0982
- cell viability (log2) [11]: inactive: 0.158
- cell viability (log2) [12]: inactive: 0.0988

SMILES: COc1cc(O)c2c(=O)cc(-c3ccc(OC)c(O)c3)oc2c1
- cell viability (log2) [3]: inactive: 0.0474
- cell viability (log2) [4]: inactive: 0.00819
- cell viability (log2) [11]: inactive: 0.132
- cell viability (log2) [12]: inactive: 0.0369

SMILES: Clc1ccc(CSC(Cn2ccnc2)c2ccc(Cl)cc2Cl)cc1 (stereo not given)
- cell viability (log2) [3]: inactive: 0.0547
- cell viability (log2) [4]: inactive: -0.0713
- cell viability (log2) [11]: inactive: 0.0724
- cell viability (log2) [12]: inactive: -0.143

SMILES: Nc1ncnc2c1ncn2[C@@H]1O[C@H](CO)[C@@H](O)[C@H]1O
- cell viability (log2) [5]: active: -0.195

SMILES: COc1cc(CN2CCN(Cc3ccc([N+](=O)[O-])cc3)CC2)c([N+](=O)[O-])cc1OC
- cell viability (log2) [3]: inactive: 0.132
- cell viability (log2) [4]: inactive: 0.09
- cell viability (log2) [11]: inactive: 0.0515
- cell viability (log2) [12]: inactive: 0.104

SMILES: C[n+]1cc2c3c(ccc2c2ccc4cc5c(cc4c21)OCO5)OCO3
- cell viability (log2) [11]: active: -0.232
- cell viability (log2) [13]: active: -0.101
- cell viability (log2) (25 µM, library screen: screen2, EWS-FLI1 expression: high (no doxycycline)): active: -4.23
- cell viability (log2) (25 µM, library screen: screen2, EWS-FLI1 expression: low (doxycycline-induced shRNA knockdown)): active: -4.28

SMILES: Nc1ccn([C@@H]2O[C@H](CO)[C@@H](O)C2(F)F)c(=O)n1
- cell viability (log2) [1]: active: -1.19
- cell viability (log2) [2]: active: -0.155
- cell viability (log2) [7]: active: -1.43
- cell viability (log2) [8]: active: -0.392
- cell viability (log2) [9]: active: -1.81
- cell viability (log2) [10]: active: -0.473
- cell viability (log2) [15]: active: -1.98
- cell viability (log2) [16]: active: -0.588
- cell viability (log2) [17]: active: -2.08
- cell viability (log2) [18]: active: -0.562
- cell viability (log2) [19]: active: -2.16
- cell viability (log2) [20]: active: -0.572
